Assay results: PubChem BioAssay AID1345083 (National Center for Advancing Translational Sciences (NCATS), 2018)
In all, about 94,000 compounds went through this assay and about 6,200 (6.6%) were called active. Inconclusive means that the source gave no clear call. Such entries were picked first, then a sample of the others. Calls follow the shape of the dose curve; as a rule, active = well fitted inhibition curve with a large enough effect; inconclusive = small, poorly fitted or top-dose-only effect; inactive = flat fitted curve, though single readings scatter. Potencies beside an inconclusive call are fits to weak or partial responses and may not hold up.

Experiment: Cytotoxic Profiling in HEK 293 Cell Line of Diverse Libraries Using Quantitative High-Throughput Screening; also: nearly all actives have a fitted effect of over 60% in size
Details: HEK 293 viability, ATP luminescence (CellTiter-Glo), 48-72 h; series mostly up to 115 µM
Outline: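 Viability of HEK 293 cells, plated at 250 cells/well, was judged by cellular ATP after compound treatment for 48 or 72 hr. Luminescence was imaged 10 min after CellTiter-Glo addition at room temperature.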
Potency is read from the fitted curve at half-maximal effect; tags tell the direction and shape of the fitted curve.

Compound | Potency
O=C(NCC1Cn2cccc2C(=O)N1Cc1ccccc1)c1ccc(F)cc1 (stereo not given) | inconclusive: 50.1 µM [inhibitor, partial curve, poor fit]
Cc1cccc(C)c1-c1nnc2ccc(C(=O)NCc3ccc(Cl)cc3)cn12 | inconclusive: 50.1 µM [inhibitor, partial curve, poor fit]
CCC1Oc2ccc(NC(=O)COC)cc2CN(Cc2cc(F)cc(F)c2)C1=O (stereo not given) | inactive
O=C1Cc2c(-c3ccc(F)cc3F)n[nH]c2CN1Cc1ccccc1F | inactive
COCCNC(=O)c1nc2cccnc2n(Cc2ccccc2)c1=O | inactive
CCn1cc(S(=O)(=O)N2C[C@@H](Oc3ccccc3)C[C@@H]2C(=O)NC)cn1 | inconclusive: 100 µM [inhibitor, single point]
Cc1nc(CN2C[C@H](C(=O)NCc3cccc(Cl)c3)C[C@@H]2c2ccc(F)cc2)cs1 | inconclusive: 44.7 µM [inhibitor, partial curve, poor fit]
CCC(C)NC(=O)CNC(=O)c1ccc(-c2cccc(C(F)(F)F)c2)cc1 (stereo not given) | active: 35.5 µM
Cc1ccccc1C(=O)N[C@H]1[C@H](O)[C@H](O)C[C@@H]1c1ccc(C(F)(F)F)cc1 | inconclusive: 100 µM [inhibitor, partial curve, poor fit]
CC(C)CNC(=O)c1ccc2oc(-c3ccccn3)nc2c1 | inconclusive: 89.1 µM [inhibitor, partial curve]
COCCN1CC(CO)C2(CCN(C(=O)Cc3ccccc3OC)CC2)C1 (stereo not given) | inconclusive: 39.8 µM [inhibitor, partial curve, poor fit]
CCCN(CC1CCOC1)S(=O)(=O)c1ccc(C(C)C)cc1 (stereo not given) | inconclusive: 89.1 µM [inhibitor, single point]
N[C@H]1c2ccccc2C[C@@H]1NC(=O)COc1ccc(Cl)cc1Cl | inconclusive: 56.2 µM [inhibitor, partial curve, poor fit]
Cc1ccccc1C(=O)N1CCCC(C(=O)N2CCC(c3nc4ccncc4[nH]3)CC2)C1 (stereo not given) | inactive
COC(=O)[C@@H]1Cc2c([nH]c3ccccc23)[C@H]2C[C@@H](NCCc3cnc[nH]3)C[C@@H](c3ccccc3F)N21 | active: 25.1 µM
C#CCCC(=O)N(Cc1cccc(C)c1)Cc1ccccc1OC | inconclusive: 70.8 µM [inhibitor, partial curve, poor fit]
O=C(NC1CCCN(c2cc(-c3ccc(F)cc3)[nH]n2)C1)c1cc2ccccc2[nH]1 (stereo not given) | active: 39.8 µM
Fc1cc(F)cc(Cc2nc3nccc(-c4ccco4)n3n2)c1 | inconclusive: 31.6 µM [inhibitor, partial curve, poor fit]
COCCNC(=O)[C@@H]1C[C@H](Oc2cccnc2)CN1C(=O)CCc1ccccc1 | inactive
Cc1ncsc1C(=O)N1CCCC(CCc2ccc(F)cc2F)C1 (stereo not given) | active: 89.1 µM
COc1ccccc1CN1CC[C@@H]2CN(S(C)(=O)=O)[C@@H]2C1 | inactive
Cc1ccnc(NC(=O)C2CC(=O)N(c3n[nH]c4cccc(F)c34)C2)c1 (stereo not given) | active: 28.2 µM
CC(C)CN1C(=O)c2cccn2CC1C(=O)NCCN1CCCCC1 (stereo not given) | inactive

Compound | Potency
CC(=O)NC1(C)CCN(Cc2cccc(-c3ccc(C(=O)c4ccccc4)cc3)c2)C1 (stereo not given) | active: 39.8 µM
Cc1cccc(-c2nc3cc(C(=O)NCc4ccc(F)cc4)ccc3o2)n1 | inconclusive: 100 µM [inhibitor, partial curve, poor fit]
Cc1ccc(NC(=O)N2CCc3[nH]c4ccc(F)cc4c3C2)cc1 | inconclusive: 89.1 µM [inhibitor, single point]
COC(=O)[C@@H]1Cc2ncn(Cc3ccccc3)c2CN1S(=O)(=O)c1cccc2c(N(C)C)cccc12 | inconclusive: 50.1 µM [inhibitor, partial curve, poor fit]
Cc1ccc(C(=O)N2C[C@H](c3nc(-c4ccncc4)no3)[C@@H](C)C2)c(C)c1 | inconclusive: 44.7 µM [inhibitor, partial curve, poor fit]
COc1cc(OC)cc(C(=O)N2CCC(c3n[nH]c(=O)n3-c3ccccc3)CC2)c1 | inactive
Cc1c(C(=O)NCc2cncn2CC(C)C)oc2c(F)cccc12 | inconclusive: 39.8 µM [inhibitor, partial curve]
COC(=O)N1CCC(C(=O)N2CCC(N3Cc4ccccc4C3=O)CC2)CC1 | inactive
O=C(C1CCN(c2nc(-c3ccccc3)nc3c2CCC3)CC1)N1CCCNCC1 | inconclusive: 56.2 µM [inhibitor, partial curve, poor fit]
CC(C)[C@@H]1C[C@@H]2C[C@@H](N(C)Cc3ccccc3)C[C@]2(c2ccccc2)CO1 | inconclusive: 79.4 µM [inhibitor, partial curve, poor fit]
COc1ncccc1-c1nc2cc(C(=O)Nc3cccc(Cl)c3)ccc2o1 | active: 12.6 µM
Fc1ccc(Cc2nc3nccc(-c4cc5ccccc5o4)n3n2)cc1 | inactive
CN1CCC(N[C@H]2C[C@@H](Cc3cc(C(C)(C)C)on3)C2(C)C)CC1 | active: 28.2 µM
COc1cccc(-c2ccc(CN3CCCC(NC(=O)c4cccnc4)C3)cc2)c1 (stereo not given) | active: 28.2 µM
CCOc1ccccc1C1NC(=O)N(CC(=O)Nc2cccc(F)c2)C2=C1C(=O)OC2 (stereo not given) | inconclusive: 56.2 µM [inhibitor, partial curve, poor fit]
Cc1noc2c(N3CCOCC3)cc(-c3cccnc3)nc12 | inactive
Cc1ccc(N2CCC(NC(=O)c3ccc(N(C)C)cc3)C2=O)cc1C (stereo not given) | inactive
CC(=O)N1CCN(C(=O)c2ccc3nnc(-c4ccoc4)n3c2)CC1 | inactive
O=C(c1cc(Cl)ccc1F)N1CCCC2(C1)NC(=O)N(Cc1ccccc1)C2=O (stereo not given) | inactive
CNC(=O)c1ccc(-c2ccc(OC)nn2)cc1 | inconclusive: 79.4 µM [inhibitor, partial curve, poor fit]
COc1ccc(CC(=O)N2CC(c3nnc(-c4ccc(C)cc4)o3)C3(CCOCC3)C2)cc1 (stereo not given) | inactive
COCc1ccc2c(c1)c(OC(C)(C)C(=O)NC1CCOCC1)nn2CCC(C)C | inconclusive: 100 µM [inhibitor, partial curve, poor fit]
